Source: PubChem BioAssay (NCI)
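Where inhibition never reached the appropriate level, the endpoint shown equals the highest concentration tested. Otherwise, values were interpolated linearly from a five-concentration, 48-hour dose response in 96-well plates. GI50 is the concentration that inhibits growth by half. The concentration for full growth arrest is given as TGI.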

Test system: NCI-H322M lung
Assay: NCI tumour cell line growth inhibition, 48 h

**Q.** Which TGI does the source give for `C/C(=N/Nc1nc(C)cc(=O)[nH]1)C(=O)O` here?
**A.** > 100 µM

**Q.** Which results are given for `C#Cc1cccc(NC(=O)c2ccc(NC(=O)CCl)cc2)c1`?
**A.** GI50: > 82.5 µM; TGI: > 82.5 µM

**Q.** What does the source list for `CN(C)CCOC(=O)Nc1nc2ccc(Sc3ccccc3)cc2[nH]1`?
**A.** GI50: 10.3 µM; TGI: 24.1 µM

**Q.** `COC(=O)C1C=CCON2CCc3c(n(S(=O)(=O)c4ccccc4)c4ccccc34)C12` (stereo not drawn) was tested. Which TGI did it give?
**A.** > 100 µM

**Q.** How did the TGI turn out when `Clc1c2ccccc2nc2c1[nH]c1ccccc12` was run?
**A.** > 100 µM

**Q.** Which TGI does the source give for `CCCNC(=O)N1CC(CN2CCN(c3ccccc3)CC2)O/C1=N/C(=O)Nc1ccccc1` (stereo not drawn) here?
**A.** > 100 µM

**Q.** How did the TGI turn out when `CC1(C)C2CCC(O)(C2)C1N` (stereo not drawn) was run?
**A.** > 100 µM

**Q.** `CCn1ccc(NS(=O)(=O)c2ccc(N)cc2)nc1=O` was tested. Which GI50 did it give?
**A.** > 100 µM

**Q.** And the TGI?
**A.** > 100 µM

**Q.** `COc1ccc2nc(NC(=O)C(=O)NNC(=O)c3ccncc3)sc2c1` was tested. Which TGI did it give?
**A.** > 100 µM

**Q.** For `C/C(=N\NC(=O)CC(=O)N(C(=O)c1ccc(Cl)cc1)c1ccc(C)cc1)c1ccccc1O`, which TGI is on record?
**A.** > 100 µM

**Q.** Which TGI does the source give for `CC[C@@]1(CCC(=O)NCCc2c[nH]c3ccccc23)CCC(=O)N2CCc3c([nH]c4ccccc34)[C@H]21` here?
**A.** > 100 µM

**Q.** With `O=C1CC2SC(COCc3ccccc3)(CCN2Cc2ccccc2)C1` (stereo not drawn) as the compound, how does the TGI read?
**A.** > 100 µM

**Q.** `COc1ccc2c(c1)C(=O)c1c-2c(Nc2cccc(C(C)=O)c2)nc2ccccc12` was tested. Which GI50 did it give?
**A.** 24 µM

**Q.** And the TGI?
**A.** 85.3 µM

**Q.** For `O=[N+]([O-])c1ccc(Sc2ccncn2)c([N+](=O)[O-])c1`, which GI50 is on record?
**A.** 6.72 µM

**Q.** And the TGI?
**A.** 19.8 µM

**Q.** Which TGI does the source give for `O=C1c2ccccc2C(=O)c2c(NCCCN3CCOCC3)ccc(NCCCN3CCOCC3)c21` here?
**A.** 34.6 µM

**Q.** Which TGI does the source give for `C1CN2CCNCCN(CCN1)CC2` here?
**A.** > 100 µM

**Q.** `COc1ccc(-c2cc(=O)c3c(O)cc(O)cc3o2)c(OC)c1OC` was tested. Which TGI did it give?
**A.** > 100 µM

**Q.** How did the TGI turn out when `C#CC1NC(=O)C1N(CC)CC` (stereo not drawn) was run?
**A.** > 100 µM

**Q.** Which results are given for `CCCN1CCC(c2ccc(Nc3nc(Nc4cc(F)ccc4C(N)=O)c4cc[nH]c4n3)c(OC)c2)CC1`?
**A.** GI50: 0.377 µM; TGI: 7.39 µM

**Q.** `CC1=NN(c2nc(N)nc(/C(C#N)=C\c3cccc([N+](=O)[O-])c3)n2)C(C)(C)C1` was tested. Which TGI did it give?
**A.** > 100 µM

**Q.** Which TGI does the source give for `Cc1ccc2nc(NC(=O)/C(=N\NC(=S)NN)C3C(=O)NC(=S)NC3=O)sc2c1` here?
**A.** > 100 µM

**Q.** Which TGI does the source give for `CCOC(=O)C(OP(=O)(OCC)OCC)C(F)(F)F` (stereo not drawn) here?
**A.** > 100 µM

**Q.** What does the source list for `COc1ccc(OC)c(/C=C/c2nc(SCc3ccccc3)n(-c3ccc(Cl)cc3)n2)c1`?
**A.** GI50: 11 µM; TGI: 88.2 µM

**Q.** What does the source list for `CCCCCC[C@H](C)NC(=O)c1ccc(Nc2nc3ccccc3c3occc23)cc1`?
**A.** GI50: 5.37 µM; TGI: 55.7 µM

**Q.** For `COc1ccc(N(C)c2nc(Cl)nc3cnn(C)c23)cc1`, which GI50 is on record?
**A.** < 0.01 µM

**Q.** What about the TGI of the same compound?
**A.** > 100 µM

**Q.** How did the TGI turn out when `O=C1O/C(=C\c2ccc(O)cc2)C(c2ccc(O)c(Cl)c2)=C1Cl` was run?
**A.** > 100 µM

**Q.** With `O=[N+]([O-])C(=C/c1cccs1)/C(=C\c1cccs1)[N+](=O)[O-]` as the compound, how does the TGI read?
**A.** 5.87 µM

**Q.** How did the GI50 turn out when `CCCCCCCC(=O)[O][Hg][CH2]C1COC([CH2][Hg][O]C(=O)CCCCCCC)CO1` (stereo not drawn) was run?
**A.** 17.7 µM

**Q.** And the TGI?
**A.** 31.6 µM

**Q.** For `S=C(N1CCN(c2ccccc2)CC1)N1CCN(c2ccccc2)CC1`, which TGI is on record?
**A.** > 100 µM

**Q.** For `CCCNC(=O)N(C)C(=O)N1N=C(c2ccccc2)C1c1ccccc1` (stereo not drawn), which TGI is on record?
**A.** > 100 µM

**Q.** How did the TGI turn out when `CCCC(=O)NC(Nc1ccc(S(=O)(=O)Nc2ccc(OC)nn2)cc1)(C(F)(F)F)C(F)(F)F` was run?
**A.** > 100 µM

**Q.** Which TGI does the source give for `CCCN(CCC)C1=Nc2ccccc2-n2cnnc2C1` here?
**A.** > 100 µM

**Q.** How did the TGI turn out when `CN(CCCn1ccnc1[N+](=O)[O-])CCCn1ccnc1[N+](=O)[O-]` was run?
**A.** > 100 µM

**Q.** How did the TGI turn out when `COc1cc2c[n+](C)c3c(c2cc1OC)Cc1cc2c(cc1-3)OCO2` was run?
**A.** > 100 µM

**Q.** How did the GI50 turn out when `CSc1ccc(C(=O)/C=C/c2ccccc2Cl)cc1` was run?
**A.** 16.9 µM

**Q.** What about the TGI of the same compound?
**A.** 35.9 µM

**Q.** With `C/C(Cc1ccc2c(c1)OCO2)=N\NC(=O)C(C)Sc1nnc(SC(C)C(=O)N/N=C(\C)Cc2ccc3c(c2)OCO3)s1` (stereo not drawn) as the compound, how does the TGI read?
**A.** > 100 µM

**Q.** For `O=[N+]([O-])c1cc2c([N+](=O)[O-])cccc2o1`, which TGI is on record?
**A.** 37.5 µM

**Q.** `COCc1c(-c2ccc(NC(=O)Nc3cc(C(F)(F)F)ccc3F)c(F)c2)c2c(N)ncnn2c1CN1CCOCC1` was tested. Which GI50 did it give?
**A.** 1.78 µM

**Q.** What about the TGI of the same compound?
**A.** 8.03 µM

**Q.** How did the TGI turn out when `CCOC(=O)C(C(O)c1ccc([N+](=O)[O-])cc1)P(=O)(OCC)OCC` (stereo not drawn) was run?
**A.** > 100 µM

**Q.** What does the source list for `CN(C)CCNC(=O)NC[C@H]1CC[C@@H]2[C@H](O1)c1cc(C(F)(F)F)ccc1N[C@H]2c1ccccc1`?
**A.** GI50: 0.0948 µM; TGI: > 41 µM

**Q.** For `CC1=C2C3OC(=O)C(C)C3CCC2(C)C=CC1=Nc1ccccc1` (stereo not drawn), which TGI is on record?
**A.** > 100 µM

**Q.** For `O=C(C/C=C/c1ccccc1)c1ccccc1`, which TGI is on record?
**A.** > 100 µM

**Q.** With `c1ccc([P+](c2ccccc2)(c2ccccc2)C2c3ccccc3-c3ccccc32)cc1` as the compound, how does the TGI read?
**A.** 6.65 µM

**Q.** How did the GI50 turn out when `COc1cnc2c(c1)C(=O)c1c-2n(CCCN2CCNCC2)c(=O)c2cc([N+](=O)[O-])ccc12` was run?
**A.** 1.09 µM

**Q.** What about the TGI of the same compound?
**A.** 2.63 µM

**Q.** For `COC(=O)[C@]12CC[C@@H](C)[C@H](C)[C@@H]1C1=CC[C@@H]3[C@@]4(C)C(C=O)=C[C@@](C)(COC(=O)/C=C/c5ccccc5)[C@@H]4[C@H](O)C[C@@]3(C)[C@]1(C)CC2`, which GI50 is on record?
**A.** 5.71 µM

**Q.** And the TGI?
**A.** 81.5 µM

**Q.** Which results are given for `Cc1nccc2c3ccc(OCc4cn(-c5ccc(Cl)cc5)nn4)cc3n(CC(C)C)c12`?
**A.** GI50: 10.9 µM; TGI: > 33.3 µM

**Q.** `O=C(O)CCC(C(=O)O)N1C(=O)C2C3CCC(C3)C2C1=O` (stereo not drawn) was tested. Which TGI did it give?
**A.** > 100 µM
